# Values joined by “and” are separate entries in the source; they are usually repeats but may differ in a detail not shown here. Equal entries are not always repeated. Out of some 350,000 compounds screened, about 260 (0.074%) were called active. Inconclusive means that the source gave no clear call. Such entries were picked first, then a sample of the others. Calls come from the whole dose curve; as a rule, active = well fitted inhibition curve with a large enough effect; inconclusive = small, poorly fitted or top-dose-only effect; inactive = no such curve, though single readings can be large or run the other way. Potencies of inconclusive entries are doubtful fits and often do not repeat.
# Molecular target: Ferritin light chain (Equus caballus) (UniProt P02791)
# Assay: qHTS Assay for Identification of Novel General Anesthetics; note: nearly all actives have a fitted effect of over 20% in size
# Conditions: apoferritin/1-aminoanthracene competitive binding, fluorescence; activity change, negative = displacement: at 77.5 µM (top of the series)
# Procedure, shortened: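 In PBS, apoferritin at 10 uM is loaded with 1-AMA from a 50% saturated solution. After 10 min of compound exposure at ambient temperature, reduced 535 nm fluorescence indicates probe displacement.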
# % is set by controls: 0 for no effect and ±100 for the full control effect; potency is the fitted concentration of half-maximal effect; tags give direction and shape of the fitted curve.
# Chain of UniProt P02791 (P02791 whole entry, looked up): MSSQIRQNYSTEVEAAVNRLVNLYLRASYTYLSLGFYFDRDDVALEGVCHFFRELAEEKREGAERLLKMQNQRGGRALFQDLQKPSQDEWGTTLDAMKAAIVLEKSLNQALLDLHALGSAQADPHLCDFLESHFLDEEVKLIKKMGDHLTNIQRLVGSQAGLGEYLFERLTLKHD
Compound,"activity change, negative = displacement",Potency
CC1CCN(C(=O)CCc2nnc(-c3ccccc3)o2)CC1,inactive: -8.43%,–
COc1cccc(CNC(=O)CSc2nnc(C)c3c(C)n(-c4ccccc4)nc23)c1,–,"inconclusive: 28.2 µM [inhibitor, single point]"
CC(/C=C/c1ccco1)=N/NC(=O)CNc1ccccc1C,–,"inconclusive: 22.4 µM [inhibitor, partial curve]"
O=C(c1ccc(F)c(F)c1)N1CCCc2ccccc21,–,"inconclusive: 39.8 µM [inhibitor, single point]"
CCC(C(=O)Nc1ccc(F)cc1F)n1nc(-c2ccccc2)c2c(c1=O)CCCC2 (configuration not stated),–,"inconclusive: 50.1 µM [inhibitor, single point]"
COC(=O)c1ccc(N2C(=O)C3CC=CC(C)C3C2=O)cc1 (configuration not stated),–,"inconclusive: 31.6 µM [inhibitor, partial curve]"
CCCN1CCC(=O)N(CCSc2ccccc2)CC1,inactive: -3.28%,–
Cc1nc(N)c(S(=O)(=O)c2ccccc2)c(Nc2ccc(Br)cc2)n1,inactive: 3.03%,–
O=C(C(Cc1ccccc1)N1C(=O)C2C3C=CC(C3)C2C1=O)N1CCCCC1 (configuration not stated),inactive: -8.5%,–
CCOC(=O)c1c(NC(=O)CN2C(=O)NC(C)(c3ccc(Cl)cc3)C2=O)sc(C(=O)NC)c1C (configuration not stated),–,"inconclusive: 35.5 µM [inhibitor, partial curve, poor fit]"
CC(=O)N1c2ccccc2CC1C(=O)N1CCN(c2cc(Cl)ccc2C)CC1 (configuration not stated),–,"inconclusive: 22.4 µM [inhibitor, partial curve]"
COc1cccc(C(=O)C2CN(c3ccccc3)CC2c2ccc(Cl)cc2)c1 (configuration not stated),–,"inconclusive: 39.8 µM [inhibitor, partial curve]"
O=C(CNc1cccc2ccccc12)N/N=C/C=C/c1ccco1,–,"inconclusive: 11.2 µM [inhibitor, partial curve]"
O=C(NC1CCCCC1)C(c1ccccc1)N(C(=O)Cc1ccsc1)c1ccccc1 (configuration not stated),inactive: 3.86%,–
Cc1cccc(/C(N)=N/OC(=O)N2c3ccccc3Sc3ccccc32)c1,inactive: -20.4%,–
CCCCc1c(C)c2ccc(OC)c(/C(C)=N\O)c2oc1=O,–,"inconclusive: 14.1 µM [inhibitor, partial curve]"
CC(C)(C)C(=O)COC(=O)c1cc(-c2ccncc2)nc2ccccc12,–,"inconclusive: 31.6 µM [inhibitor, single point]"
CCc1nc(N2CCOCC2)c(C#N)c2c1CCCC2,inactive: -14.6%,–
C/C=C(/C)C(=O)OC1Cc2c(ccc3ccc(=O)oc23)OC1(C)C (configuration not stated),–,"inconclusive: 35.5 µM [inhibitor, single point]"
O=C(NCc1ccco1)c1cc(S(=O)(=O)N2CCOCC2)c(Cl)cc1Cl,inactive: -10.5%,–
Cc1ccc(C)n1-c1ccc(-c2ccnc(N)n2)cc1,inactive: -8.15%,–
Cc1cccc(NS(=O)(=O)c2ccc3[nH]c(=O)cc(C(=O)OC(C)C(=O)Nc4ccc([N+](=O)[O-])cc4)c3c2)c1 (configuration not stated),–,"inconclusive: 7.94 µM [inhibitor, partial curve]"
O=C(Nc1ccc(S(=O)(=O)N2CCCCCC2)cc1)c1c(F)cccc1F,–,"inconclusive: 50.1 µM [inhibitor, single point]"

Compound,"activity change, negative = displacement",Potency
O=C(CSCc1ccc(F)cc1)NCc1ccc(F)cc1,–,"inconclusive: 39.8 µM [inhibitor, single point]"
CC1(C)CC(CCN(Cc2ccccc2)C(=O)c2ccco2)(c2ccccc2)CCO1 (configuration not stated),–,"inconclusive: 35.5 µM [inhibitor, single point]"
O=C(CNC(=O)c1cccc(Br)c1)N/N=C/c1cc(Br)cc(Br)c1O,–,"inconclusive: 7.08 µM [inhibitor, full curve]"
CC(C)Cc1nnc(NS(C)(=O)=O)s1,inactive: -7.14%,–
COc1ccc(CNCc2ccco2)cc1OCc1ccccc1,–,"inconclusive: 35.5 µM [inhibitor, single point]"
Cc1ccc(-c2nn(CC(=O)NCC3CCCO3)c(=O)c3ccccc23)cc1 (configuration not stated),–,"inconclusive: 14.1 µM [inhibitor, partial curve]"
O=C(NC(Nc1nc2ccc([N+](=O)[O-])cc2s1)(C(F)(F)F)C(F)(F)F)c1ccccc1,–,"inconclusive: 31.6 µM [inhibitor, partial curve]"
Cc1ccc(C(=O)Oc2cccc(NC(=O)c3ccccc3)c2)cc1C,–,"inconclusive: 28.2 µM [inhibitor, single point]"
COc1cc([N+](=O)[O-])ccc1NC(=O)NCc1cccnc1,–,"inconclusive: 35.5 µM [inhibitor, single point]"
CC(C)C(CCNC1CCN(C)CC1)c1ccc(Cl)cc1 (configuration not stated),inactive: -1.93%,–
O=C(CCCN1C(=O)/C(=C/c2ccc3c(c2)OCO3)SC1=S)Nc1cccc(C(=O)O)c1,–,"inconclusive: 25.1 µM [inhibitor, partial curve]"
O=C(CNCc1ccco1)Nc1ccc(N2CCCCCC2)cc1,–,"inconclusive: 44.7 µM [inhibitor, single point]"
Cc1ccc(C2CC(=O)NC(SCc3ccccc3)=C2C#N)cc1 (configuration not stated),–,"inconclusive: 31.6 µM [inhibitor, single point]"
CCc1ccc(-c2nc(CS(=O)CC(=O)NC3CCCCCC3)c(C)o2)cc1 (configuration not stated),–,"inconclusive: 8.91 µM [inhibitor, partial curve]"
Oc1c(CN2CCCCC2)cc(COCc2ccccc2)c2cccnc12,–,"inconclusive: 12.6 µM [inhibitor, partial curve, poor fit]"
O=c1c(Cc2ccc(Cl)cc2Cl)c(O)ccn1Cc1ccc(Cl)cc1,inactive: -3.34%,–
Cc1cnc(NC(=O)CSc2nc3ccccc3s2)s1,–,"inconclusive: 17.8 µM [inhibitor, partial curve]"
O=C(COC(=O)c1ccccc1[N+](=O)[O-])c1ccc(C2CCCCC2)cc1,–,"inconclusive: 28.2 µM [inhibitor, partial curve]"
CCCN1C(=O)C(Cc2nc3ccccc3c(=O)n2CC)c2cc(Br)ccc21 (configuration not stated),–,"inconclusive: 56.2 µM [inhibitor, single point]"
O=C(COc1ccc([N+](=O)[O-])cc1)Nc1ccccc1N1CCCC1,inactive: -11.8%,–
CCN(CC)C(=O)CC(c1cc(OC)c(OC)c(OC)c1)c1c(OC)cc(OC)c2c(-c3ccccc3)cc(=O)oc12 (configuration not stated),–,"inconclusive: 39.8 µM [inhibitor, single point] and inconclusive: 28.2 µM [inhibitor, partial curve]"
CCOc1ccc(-c2[nH]ncc2Oc2ccccc2OCC)c(O)c1,–,"inconclusive: 14.1 µM [inhibitor, partial curve]"
O=C(COc1ncnc2cc([N+](=O)[O-])ccc12)NC(=O)NC1CCCCC1,–,"inconclusive: 28.2 µM [inhibitor, partial curve]"

Compound,"activity change, negative = displacement",Potency
Cc1cc(NC(=O)/C(C#N)=C/c2ccc(-c3ccc(SC(F)F)cc3)o2)n(-c2ccccc2)n1,inactive: 6.32%,–
O=C(CCC1N=C2c3ccccc3N=C(SCc3cccc(Cl)c3)N2C1=O)NCCc1ccccc1 (configuration not stated),–,"inconclusive: 17.8 µM [inhibitor, partial curve]"
CC12CCC(C(=O)NCc3ccccc3Cl)(OC1=O)C2(C)C (configuration not stated),–,"inconclusive: 12.6 µM [inhibitor, partial curve]"
CN(C)CCNC(=O)/C(=C/c1ccc(-c2ccc(Cl)cc2Cl)o1)NC(=O)c1ccccc1,inactive: -0.0716%,–
O=C(Nc1cccc(Cl)c1)OCc1ccccn1,–,"inconclusive: 20 µM [inhibitor, partial curve]"
Cc1cccc(NC(=O)Cn2cnc3ccc(S(=O)(=O)N4CCC(C)CC4)cc3c2=O)n1,–,"inconclusive: 44.7 µM [inhibitor, partial curve]"
CC1=C(C(=O)OC2CCCCC2)C(c2ccccc2)NC(=O)N1 (configuration not stated),–,"inconclusive: 28.2 µM [inhibitor, single point]"
Oc1cccc(C(O)CNCc2ccc(OCc3ccc(Cl)cc3Cl)cc2)c1 (configuration not stated),–,"inconclusive: 39.8 µM [inhibitor, partial curve]"
COc1ccc(NC(=O)C2CCN(C3=NS(=O)(=O)C(c4ccc(C)c(C)c4)=C3C)CC2)cc1OC,–,"inconclusive: 14.1 µM [inhibitor, partial curve]"
CCn1nnnc1SCC(=O)c1ccc(NC(C)=O)cc1,–,"inconclusive: 35.5 µM [inhibitor, single point]"
CCC(C)(C)NC(=O)C(c1ccc(O)cc1)N(CCOC)C(=O)CCC(=O)Nc1nccs1 (configuration not stated),inactive: -11.5%,–
CCOc1c(OC)ccc2c3c(c(=O)oc12)CCCC3,inactive: -19.7%,–
COc1ccc2oc(C(=O)OCC(=O)N3CCC(C)CC3)c(C)c2c1,–,"inconclusive: 31.6 µM [inhibitor, partial curve]"
Cc1ccccc1NC(=O)COC(=O)CNC(=O)c1sc2ccccc2c1Cl,–,"inconclusive: 50.1 µM [inhibitor, single point]"
O=C(Cn1nc(Cc2cccnc2)c2ccccc2c1=O)N1CCN(c2ccc(F)cc2)CC1,–,"inconclusive: 39.8 µM [inhibitor, single point]"
COc1ccc(Nc2ncnc3onc(C)c23)cc1Cl,inactive: -3.9%,–
NC(=O)CSc1nc2scc(-c3ccco3)c2c(=O)n1-c1ccccc1,inactive: -21.8%,–
O=C(CCCN1C(=O)/C(=C/c2ccccc2Cl)SC1=S)Nc1cccnc1,–,"inconclusive: 14.1 µM [inhibitor, partial curve]"
COc1cc(OC)cc(C(=O)NC(=S)N2CCN(c3ccc(C(F)(F)F)cc3[N+](=O)[O-])CC2)c1,–,"inconclusive: 1.12 µM [inhibitor, full curve, poor fit]"
Cc1cc(C)cc(NS(=O)(=O)c2ccc(-c3cc(C)no3)cc2)c1,–,"inconclusive: 39.8 µM [inhibitor, single point]"
CCN(CC)c1ccc(NC(=O)CN2C(=O)c3cccnc3Oc3ccccc32)c(C)c1,–,"inconclusive: 11.2 µM [inhibitor, partial curve]"
